From PubChem BioAssay AID1460 (National Center for Advancing Translational Sciences (NCATS), 2008)
The campaign covered roughly 270,000 compounds. About 5,800 (2.1%) were called active. Inconclusive means that the source gave no clear call. Such entries were picked first, then a sample of the others. Calls come from the whole dose curve; as a rule, active = well fitted inhibition curve with a large enough effect; inconclusive = small, poorly fitted or top-dose-only effect; inactive = flat fitted curve, though single readings scatter. Where the call is inconclusive, the potency comes from a doubtful curve fit.

These compounds were tested against Microtubule-associated protein tau (Homo sapiens) (UniProt P10636) (assay: qHTS for Inhibitors of Tau Fibril Formation, Thioflavin T Binding). Details: recombinant tau K18 P301L (four-repeat tau fragment), heparin-induced fibrillization, ThT fluorescence; series mostly up to 57.4 µM; activity, negative = inhibition: at the top concentration.
In short: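 Aggregation was driven by heparin (20 uM final) acting on recombinant tau […] bearing P301L in 100 mM sodium acetate pH 7; fibrils were detected with Thioflavin T.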
% is set by controls: 0 for no effect and ±100 for the full control effect; potency is the fitted concentration of half-maximal effect; tags give direction and shape of the fitted curve.
Note: nearly all actives have a fitted effect of over 55% in size.

Sequence of UniProt P10636 (P10636 whole entry, looked up, the tested form may be a part): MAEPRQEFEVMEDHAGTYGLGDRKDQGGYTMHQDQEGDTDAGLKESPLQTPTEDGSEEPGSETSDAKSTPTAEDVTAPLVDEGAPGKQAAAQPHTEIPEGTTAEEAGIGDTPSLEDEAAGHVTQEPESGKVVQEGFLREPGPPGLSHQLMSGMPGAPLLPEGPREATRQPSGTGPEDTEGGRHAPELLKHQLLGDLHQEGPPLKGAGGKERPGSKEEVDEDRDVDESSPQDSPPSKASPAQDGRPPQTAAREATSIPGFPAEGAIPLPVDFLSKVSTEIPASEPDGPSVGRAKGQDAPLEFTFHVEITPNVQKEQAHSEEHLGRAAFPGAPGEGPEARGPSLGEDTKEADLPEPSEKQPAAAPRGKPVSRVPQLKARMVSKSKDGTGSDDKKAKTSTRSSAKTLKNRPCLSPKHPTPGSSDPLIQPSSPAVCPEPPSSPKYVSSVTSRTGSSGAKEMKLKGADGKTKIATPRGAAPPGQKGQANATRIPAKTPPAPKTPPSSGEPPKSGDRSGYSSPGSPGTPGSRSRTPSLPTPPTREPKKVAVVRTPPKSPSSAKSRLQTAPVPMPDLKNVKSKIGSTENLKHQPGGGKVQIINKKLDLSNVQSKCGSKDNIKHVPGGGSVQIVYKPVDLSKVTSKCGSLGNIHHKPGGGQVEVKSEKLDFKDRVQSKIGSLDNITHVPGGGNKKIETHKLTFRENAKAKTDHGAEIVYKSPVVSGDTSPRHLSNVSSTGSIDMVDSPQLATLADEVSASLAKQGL

Row | Structure (SMILES) | activity, negative = inhibition | Potency
1 | Cn1ccc2cc(S(=O)(=O)N3CCN(C(=O)Nc4ccc(F)cc4F)CC3)ccc21 | inactive: 0.508% | 
2 | Cc1cc(C(=O)O)ccc1N/C=C1\CCCC(C)C1=O (stereo unspecified) | inactive: -14.6% | 
3 | O=C(c1ccc(S(=O)(=O)Cc2cc(F)ccc2F)c([N+](=O)[O-])c1)N1CCCC1 |  | inconclusive: 20 µM [inhibitor, partial curve]
4 | C=CCn1c(Cc2nc3ccccc3[nH]2)n[nH]c1=S |  | inconclusive: 20 µM [inhibitor, single point]
5 | CC(C)NC(=O)CCC(=O)N1Cc2ccccc2Oc2ncccc21 | inactive: -0.545% | 
6 | Cc1ccc2cc(C#N)c(NCCCNC(=O)C3CCCO3)nc2c1 (stereo unspecified) | inactive: -1.3% | 
7 | O=C(Cc1nc2ccccc2[nH]c1=O)c1ccccc1 |  | inconclusive: 2.51 µM [inhibitor, full curve]
8 | Cc1ccccc1N=C/C=C1\N(C)c2ccccc2C1(C)C |  | inconclusive: 35.5 µM [inhibitor, single point]
9 | O=C(Nc1nnc(-c2ccc(Cl)cc2)o1)NC1CCCCC1 | inactive: -2.23% | 
10 | COc1ccc(-n2cnnc2SC(C)c2nc3sc(C)c(C)c3c(=O)[nH]2)cc1 (stereo unspecified) |  | inconclusive: 39.8 µM [inhibitor, single point]
11 | Cc1cc(C)c2c(-n3cccc3)c(C(=O)NNS(=O)(=O)c3ccc(Cl)cc3)sc2n1 |  | inconclusive: 25.1 µM [inhibitor, single point]
12 | O=C(CNc1ccc2c(c1)OCO2)N/N=C\c1ccccc1Cl |  | inconclusive: 14.1 µM [inhibitor, partial curve]
13 | C=CCc1ccc(OCCOCCOc2ccc(C)cc2[N+](=O)[O-])c(OC)c1 | inactive: -23.9% | 
14 | CCOC(=O)/C=C(C)\C=C\c1c[nH]c2ccccc12 |  | inconclusive: 15.8 µM [inhibitor, partial curve]
15 | CC(C)Oc1ccc(-c2nc3c(C#N)c[nH]n3c2NC2CCCCC2)cc1 | inactive: -8.89% | 
16 | CCOC(=O)c1cc(-c2csc(N/N=C/c3ccccc3Cl)n2)on1 |  | inconclusive: 1 µM [inhibitor, full curve]
17 | Cc1cccc(C)c1OCC(O)Cn1c2ccccc2c2ccccc21 (stereo unspecified) |  | inconclusive: 22.4 µM [inhibitor, partial curve]
18 | O=C(N/C(=C/C=C\c1ccccc1)C(=O)N1CCOCC1)c1ccc(Br)cc1 |  | inconclusive: 17.8 µM [inhibitor, partial curve]
19 | COC(=O)c1scc2c(=O)cc(C(F)(F)F)[nH]c12 |  | inconclusive: 20 µM [activator, single point]
20 | Cc1ccc(NC(=O)CN(C)C(=O)COc2cccc3cccnc23)cc1 |  | inconclusive: 22.4 µM [inhibitor, single point]
21 | N/C(Cc1ccc([N+](=O)[O-])cc1)=N\OC(=O)c1ccc(Br)cc1 |  | inconclusive: 25.1 µM [inhibitor, single point]
22 | Cc1ccc(NC(=O)c2ccc3ncsc3c2)cc1S(=O)(=O)N(C)C |  | inconclusive: 15.8 µM [inhibitor, partial curve]
23 | Cc1cccc(NC(=O)CSc2nnc(NC(=O)CN3CCCCC3)s2)c1 | inactive: -0.667% | 

Row | Structure (SMILES) | activity, negative = inhibition | Potency
24 | Cc1ccccc1C(=O)n1nc(-c2cccnc2)nc1NCc1ccccc1 |  | inconclusive: 39.8 µM [inhibitor, single point]
25 | NNc1ncnc2c1cnn2-c1ccccc1 |  | inconclusive: 17.8 µM [inhibitor, partial curve]
26 | NS(=O)(=O)c1ccc(NC(=O)C2Cc3ccccc3N2C(=O)c2ccccc2)cc1 (stereo unspecified) | inactive: -0.384% | 
27 | COc1ccc(C2CC(=O)c3cc(-c4nc(-c5ccc(Cl)cc5)cs4)c(=O)[nH]c3C2)cc1OC (stereo unspecified) | inactive: -7.65% | 
28 | O=C(NC(Cc1c[nH]c2ccccc12)C(=O)N/N=C/c1cccc2ccccc12)c1cccs1 (stereo unspecified) | inactive: 10.2% | 
29 | O=C(CCn1c2c(c3ccccc31)CCCC2)NNC(=O)c1ccc(Cl)c([N+](=O)[O-])c1 |  | inconclusive: 12.6 µM [inhibitor, partial curve]
30 | COc1ccc2nc(N)sc2c1 | inactive: -8.66% | 
31 | CC1Cc2ccccc2N1S(=O)(=O)c1nnc(NC(=O)c2ccccc2)s1 (stereo unspecified) |  | inconclusive: 17.8 µM [inhibitor, partial curve, poor fit]
32 | Cc1sc(=NC(=O)c2ccco2)n(C)c1-c1ccc(Cl)cc1 |  | inconclusive: 0.112 µM [inhibitor, full curve, poor fit]
33 | O=C(CSc1ccc2nnc(-c3ccc(Cl)cc3)n2n1)N1CCc2ccccc21 | inactive: -11.6% | 
34 | CC(C)c1ccc2oc(-c3ccc(N)cc3)nc2c1 |  | inconclusive: 15.8 µM [inhibitor, partial curve]
35 | O=C(CSc1nnc(-c2ccc3c(c2)OCO3)o1)Nc1ncc(C(F)(F)F)cc1Cl |  | inconclusive: 22.4 µM [inhibitor, partial curve]
36 | COc1ccc(CNc2cc(-c3ccccc3CN(C)C)ncn2)c(OC)c1 |  | inconclusive: 4.47 µM [inhibitor, single point]
37 | Cc1ccc(N=C2NC(=O)/C(=C/C=C/c3ccco3)S2)cc1C |  | active: 4.47 µM
38 | O=C(O)CN1C(=O)/C(=C/c2ccc(N3CCCCC3)o2)SC1=S |  | active: 15.8 µM
39 | O=C(CSc1ncc(S(=O)(=O)c2ccc(Cl)cc2)c(=O)[nH]1)Nc1cccc(C(F)(F)F)c1 | inactive: -6.14% | 
40 | CCOc1ccc(-c2nc(CN(Cc3ccccc3)C[C@@H]3CCC(=O)N3)c(C)o2)cc1 | inactive: -22.4% | 
41 | S=C(Nc1ccc2[nH]ccc2c1)NC1CCCCC1 |  | inconclusive: 11.2 µM [inhibitor, partial curve]
42 | CC(/C=C/c1ccccc1)=N\NC(=O)c1ccc2c(c1)OCCO2 |  | inconclusive: 1.12 µM [inhibitor, partial curve]
43 | COC(=O)C1=C(C(=O)OC)[C@@H]2N(C)c3ccccc3[C@@]23C[C@@H](CO)N(C(=O)c2cc(C)oc2C)C3=N1 | inactive: 6.17% [at 11.5 µM] | 
44 | Cc1cc([N+](=O)[O-])nn1Cc1ccc(C(=O)N/N=C/c2ccc(N(C)C)cc2)cc1 |  | inconclusive: 15.8 µM [inhibitor, partial curve]
45 | COc1ccc(-c2nc(SCC(=O)Nc3c(C)cc(C)cc3C)n[nH]2)cc1 | inactive: -7.12% | 
46 | COc1ccccc1CNC(=O)c1ccc2nc(CCc3ccccc3)oc2c1 |  | inconclusive: 6.31 µM [inhibitor, partial curve, poor fit]
